Assay results reported in the RNAGym collection of RNA variant scans (doi:10.7554/elife.90254).
The source gives no read counts; variants with many changes may rest on few reads.

B1: LINE1-full (parent)
chain: UACGUAGGUGGUUUUCCCCUGAUAGUGCUAAGGGGGCCUGGAAGUUUGGACUGGGCAGAGCUCAACACAGCGUGGCAAAGUGGCUGUGGCUAGACUGCCUCUCUGGAUUCCUCGUCACUCAGCAGGGCAUCUCUGAGAGAAAUGCC

Variants of: B1
Assay: self-cleavage, relative activity (ratio to wild type); higher = more cleavage; in vitro, sequencing; the parent is a self-cleaving ribozyme

| Variant | self-cleavage |
| --- | --- |
| G7C C38U A121G | 0.81 |
| G7U G32U U45A A141G | 1.01 |
| G7U U39A G72A U81C U87C U115C | 1.62 |
| A6G U73A A79G G83A A107G | 0.99 |
| G7C U13A U39A | 1.07 |
| A6G U87A G105A C146U | 0.32 |
| G7U U47C C116U | 1.33 |
| A6G U45A U104C | 0 |
| A6U U62A A78G A141G | 0.16 |
| A6G U100C C120U A140G A142C | 1.13 |
| G7A A67U U73C | 0.29 |
| G7C A107G C111U G114A | 2.54 |
| A6U U62C A78G U132C | 0 |
| A6U A30G U104C | 0.69 |
| G8A A77G G88A | 0.11 |
| G7U U47C G72A | 0.9 |
| G7A C38A A136G | 1.01 |
| G7A U12G G27A | 0.75 |
| G7A U29A A67U A121G | 0.22 |
| A6U U52C A79U A107U A141U | 1.76 |
| A6U G34U U73A | 0.3 |
| G8A A65G U85C | 0.16 |
| A6U U73C A124G | 0.79 |
| A6U G36U U62C A79G | 0.07 |

| Variant | self-cleavage |
| --- | --- |
| A6G U52A C84U C116U A129U | 0.27 |
| A6G U81A U108C | 0.63 |
| A6U U20C A124G | 0.18 |
| A6G U62A A92C U119G | 0.54 |
| A6U U15C U47A U62C A142G | 0.45 |
| A6U U62A U85C U109A A138G | 0.22 |
| A6G U39C U47G U52C | 0 |
| G7U A59G A138G | 0.23 |
| A6U A43G A69G | 0 |
| A6U A22U U39C G41A U87A U104G U115C A141G | 0 |
| A6U A50G U85A | 0.08 |
| A6U U29C A50U A78G A142G | 0.57 |
| A6G U46C A64U A67G U134A | 0.5 |
| A6G U96A U100C | 0 |
| A6U U20C U46C | 1.76 |
| A6U U15A U132C | 0.62 |
| A6G U52C U119C | 0 |
| G7A A31G A117G | 0.92 |
| G7A U115A A129G | 1.33 |
| G7U U14C C17A G144A | 1.45 |
| A6U G7A A43G G55A A69U | 0.1 |
| A6G U108A A129U | 0.78 |
| G8A U52A A117G A124U | 2.01 |
| G7A U29C U85C A140G | 0.11 |

| Variant | self-cleavage |
| --- | --- |
| A6U A77U U104C A107U U130C | 2.58 |
| G7A U91C A140G | 0 |
| A6G U73G A124U | 0.84 |
| A6G U87A A141G | 0.16 |
| G8C A42G C120U | 1.27 |
| A6U U47C A78G | 0.71 |
| A6U A31G A64U C68U U132A | 0.2 |
| G8A A42G U102C U115A | 1.15 |
| A6G U96C U100C | 0 |
| G7A U14C U39A G53A A138G | 1.84 |
| A6G U47A A64C | 0.09 |
| G7C U91C U130C A138U U143A | 0.74 |
| G8C A42G A65G A69G U85C C98U | 0 |
| A6U G126A A136G | 1.71 |
| G8A U104C A141U | 1.59 |
| G8A U45C A67U U73C | 0.11 |
| A6U G44A U100C A136G | 0.88 |
| G7A U100A U119C A136U A142G | 1.2 |
| G7A U15C A67U | 0.18 |
| A6U U20C U112C | 0.72 |
| A6U U39C U102C | 1.08 |
| A6U U15A A64G | 0.52 |
| A6G U104C U143A | 1.33 |
| A6G U62C A140G | 0.4 |

| Variant | self-cleavage |
| --- | --- |
| A6U U14A U85C U109C | 0 |
| A6U U12C A138G | 1.02 |
| G7C U87A A117U | 0.04 |
| G7C U52A A138G | 1.96 |
| G7U A65G A138G | 0.18 |
| A6G U47C C110U | 0.64 |
| A6U U15C G58A A69G G86A U100A U115C A141G | 0.03 |
| A6U G8A A140G | 0.91 |
| G8A U100C U134C | 1.51 |
| A6G U81A U87G | 0.82 |
| A6G U87G A94U A136G | 0.43 |
| A6G U39A U62C A138G | 0.1 |
| A6U U46C U73A U91A A107G A129G | 1.06 |
| G8A U12C U29C A31U U85C A140G | 0 |
| A6U G7A U14C A50G A67G | 0.42 |
| G8C U39A U112C G126A | 1.7 |
| A6U A59G A138G G139A A140G | 0.24 |
| A6G U46C U62A A69G C90A | 0.22 |
| A6U U9A A117G A124G A136U | 0.88 |
| G7U A42G A124G | 1.21 |
| A6G U109A A141G | 0.93 |
| G7A G36U A138G | 2 |
| G8A U26C U91A | 0.86 |
| G7A U26A C56U A65G A138G | 0 |

| Variant | self-cleavage |
| --- | --- |
| G7A G21A U132G | 1.9 |
| A6G U73C G139U | 0 |
| A6U U52C C116U | 1.26 |
| A6G U47A G97A | 0.08 |
| A6G U81A U134C | 1.16 |
| G7A U14C U130C | 0.86 |
| A6U U45A G48U | 1.08 |
| G7A U15A A64U U73C A136G | 0 |
| G7U U102C C128U | 0.63 |
| A6G U39C U47A A138U | 1.15 |
| A6U U29C A138G | 0.41 |
| A6U A79G U96C A138G | 0.35 |
| A6G U45C U46C U52A A121U | 1.08 |
| G7A A43U U62C | 0.08 |
| A6G U47A U96C C113U U143A | 0.09 |
| G8A U73C U104C | 2.55 |
| G7A U13C A77G C131U | 1.17 |
| G8A U12C A129G U134A | 0.88 |
| G7U U112C A121G | 2.67 |
| A6G U29C G58A U102A U130C A142G | 0.23 |
| A6G U81A U132C | 2.3 |
| A6U U12A A65C U73G A92G U109A | 1.11 |
| G8A A43G A121G | 1.84 |
| A6U U13C A65G A141G | 0 |

| Variant | self-cleavage |
| --- | --- |
| A6U A57G G88U | 0.12 |
| A6U A43G A78U | 1.39 |
| G7A U62A A65G A94G | 0 |
| A6U U26A A64U A140G | 0.1 |
| A6U A117G A138G | 1.88 |
| A6G U73A U91A A138G | 0.89 |
| G8A A79G U108C U134C | 2.3 |
| G8A U115A U134G | 1.61 |
| A6U A67G G125U U143A | 0.31 |
| A6U U9G U39A U46C C99U A129U A141G | 1.01 |
| A6G U108C U119C | 0.66 |
| A6U U15C C19U A77G A138G | 1.68 |
| G7U U100G U143A | 2.09 |
| G7A G105A U130C | 1.06 |
| A6U A69U A77G | 0.18 |
| A6U G49A U102A U132C A140G | 0.94 |
| G8A G53U A69G | 0.57 |
| A6U G89U A124G | 0.05 |
| A6G U62C U109C | 0.48 |
| G8A U20C A67G A94G A140G | 0.32 |
| G7A U73C A117G | 0.44 |
| A6G U62C U91A | 0.33 |
| G7C U15A U73C U109C U143C | 0 |
| G7C U14C A69U U100A | 0.25 |

| Variant | self-cleavage |
| --- | --- |
| G7U U20C A64G G106U A117U U130C | 0.14 |
| G8A A69U U130A | 0.1 |
| A6G U87C A124U | 0 |
| A6U A42G U47A A107U | 0.71 |
| A6U U52A G122A | 1.11 |
| G8A U9C A22G U102C A140G | 0.39 |
| A6U G27A C51G | 0.84 |
| A6U U45C C61U A67U U81C A136G C145U | 0.09 |
| G7A U108C U134C | 1.67 |
| G8A C84A U85C U115C U143A | 0.03 |
| A6G U47A A65G A77G U115A | 0.99 |
| A6U G35C U102C | 1.74 |
| A6U A79G G83U | 0.38 |
| A6G U52A U132C | 0.91 |
| A6U A43G A59G U62C A129U | 0 |
| G8A G36A A129G A141G | 1.97 |
| G7A A24G G32A U87C | 0.27 |
| A6G U45A A92G | 0.53 |
| G7U A50G U87A U119A | 0.08 |
| A6G U62C A77U U102A | 0 |
| G7U C17U U39C A65U G139A U143G G144A | 0.16 |
| G7C U9G A78U A129G A136G | 1.06 |
| G8U A50G A141G | 1.6 |
